Measured values from patent publication US20230293647A1.

What was measured:
Angiotensin II [1] = molecular target: Angiotensin II (UniProt P01019); assay: SPR, ACE2-Fc captured on Protein A, angiotensin II as analyte, 1:1 Langmuir fit
Angiotensin II [2] = molecular target: Angiotensin II (UniProt P01019); assay: SPR, 1:1 binding kinetic model

Substance: Inactive ACE2 (HH:NN) ([…])-Fc (chain not printed) (Fc fusion)
- Kd (Angiotensin II [1]): 1.3 µM
- koff (Angiotensin II [1]): 0.18 s⁻¹
- kon (Angiotensin II [1]): 138000 M⁻¹ s⁻¹
- fold reduction in affinity against active ACE2-Fc (Angiotensin II [2]): 11 fold
